According to PubChem BioAssay AID1508624 (National Center for Advancing Translational Sciences (NCATS), 2021):
Hit rate of the full screen: of about 48,000 compounds, about 120 (0.25%) were called active. Not shown: some 4% with an inconclusive outcome. Calls follow the shape of the dose curve; as a rule, active = well fitted activation curve with a large enough effect; inconclusive = small, poorly fitted or top-dose-only effect, or another doubt; inactive = no such curve, though single readings can be large or run the other way. This is one part of the list.

Assay: Primary qHTS for Identification of Small Molecule Activators of Huntingtin-Antisense Promoter Activity; also: nearly all actives have a fitted effect of over 55% in size
Settings: HEK293 HTT-AS promoter firefly luciferase reporter, 24 h; series mostly up to 57.5 µM; activity change, positive = activation: at the top concentration
In short: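 HEK293 luciferase promoter-reporter cells (2,500/well) plated 24 h, then compounds added at up to 57.5 uM final for 24 h at 37 °C. Firefly luminescence by Dual-Glo, normalized to vehicle (0%) and zero RLU (-100%).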

Activity change, positive = activation, inactive:
COc1ccccc1NC(=O)c1c(-c2ccc(C)cc2)nnc2ccccc12 3.95%
CCCn1c(=N)c(C(=O)NCC2CCCO2)cc2c(=O)n3cc(C)ccc3nc21 (configuration not stated) -12.2%
Cc1cccc(-c2nc(SCc3cc(=O)c4c(C)cc(C)cc4[nH]3)n[nH]2)c1 -41.4%
COCCN(CCOC)S(=O)(=O)c1ccc(C(=O)Nc2sc3c(c2C(N)=O)CCCC3)cc1 -34.2%
O=C(Cn1ncc2c3ccccc3n(Cc3ccccc3)c2c1=O)NCCc1ccc(Cl)cc1 -13.5%
COc1ccc(S(=O)(=O)N2CCC(c3nc4ccccc4s3)CC2)cc1OC -0.755%
CCCNC(=O)c1ccc2c(c1)N=C(CCC)c1ccccc1S2 -49.9%
COc1cccc(NC(=O)Cn2nc(N3CCN(c4ccccc4)CC3)ccc2=O)c1 -9.34%
O=C(Cn1nc2c(cc1=O)CCCC2)NCc1ccc(Cl)cc1 -32.2%
Cc1ccccc1Cn1ccn(-c2ccc(F)c(F)c2)c(=O)c1=O 0.968%
CCOC(=O)CSc1nc2ccccc2c(=O)n1-c1ccc(C(=O)NCCOC)cc1 -3.7%
O=C(Nc1ccccc1C(F)(F)F)N1CCOc2ccc(Cl)cc21 -17.8%
Cc1ccc(N2C(=O)CS(=O)(=O)C23C(=O)Nc2ccccc23)cc1C (configuration not stated) -15.4%
CCOc1ccccc1-c1noc(CSc2nnc(-c3ccccc3)n2-c2ccc(OC)cc2)n1 -38.9%
CCOC(=O)N1CCC(NC(=O)c2ccc3c(c2)N(Cc2ccccc2C)C(=O)c2ccccc2S3=O)CC1 (configuration not stated) -31%
CN(Cc1nc(-c2ccc(Cl)cc2)no1)S(=O)(=O)c1ccccc1 -14.6%
COc1ccc(N2CCN(C(=O)Nc3cn(CC(C)C)c(=O)c4ccccc34)CC2)cc1 11.9%
O=C(Nc1cc(Cl)ccc1Cl)c1ccc2c(c1)N(Cc1cccc(Cl)c1)C(=O)c1ccccc1S2=O (configuration not stated) -11.5%
Cc1nn(-c2ccccc2)c(OC(=O)c2ccccc2)c1S(=O)(=O)c1ccccc1 -20.1%
COc1c(Cl)cc(C(=O)Nc2cc(-c3nc4ccccc4[nH]3)ccc2C)cc1Cl -31.5%
Cc1ccc2oc(C(=O)Nc3c(C(=O)Nc4cccc(Cl)c4)oc4ccccc34)cc(=O)c2c1 -0.84% [at 11.5 µM, percent change from vehicle, -100% = no light]
CCOC(=O)c1c(C)oc2ncnc(Nc3cccc(C(F)(F)F)c3)c12 -1.65%
O=c1oc2ccccc2cc1-c1cn2cc(Cc3ccc(F)cc3)sc2n1 21.1%
CCc1ccc(NC(=O)CC(NCc2cccnc2)C(=O)O)cc1 (configuration not stated) -11%
Cc1ccc(OCC(=O)Nc2ccc(OCc3cc(=O)n4c(C)csc4n3)cc2)cc1C 12.3%
CCOc1ccccc1Nc1sc(C(=O)c2ccccc2)c(N)c1C(=O)Nc1ccc(F)cc1 -8.49%
Cc1ccc(Cn2ccnc2SCC(=O)NCc2ccccc2)cc1 -12.3%
CSc1ccc(CCNC(=O)Cn2nc(C)n3c(cc4sccc43)c2=O)cc1 -6.77%
Cc1nc(-c2ccc(Cl)cc2)sc1CCNC(=O)C(=O)Nc1ccc2c(c1)OCO2 -2.65%
COc1ccc(CNC(=O)C(=O)NCC(c2ccco2)S(=O)(=O)c2ccc(Cl)cc2)cc1 (configuration not stated) -27.4%
Cn1c(=O)c2c(nc(SCC(=O)Nc3ccccc3F)n2Cc2ccccc2F)n(C)c1=O -2.12%
COc1ccc(N2CCN(CCCNC(=O)c3c(C)nn(-c4ccc(F)cc4)c3-n3cccc3)CC2)cc1 -35.3%
COc1ccc(S(=O)(=O)N(CC(=O)NC(C)c2ccccc2)c2ccc(C)cc2)cc1OC (configuration not stated) -52.8%
CCc1ccc(NC(=O)Cn2nnc(-c3ccccc3N)n2)cc1 -11%
COc1ccccc1N1CCN(C(=O)c2cc3c(=O)n(Cc4cccs4)ccc3nc2C)CC1 -26.3%
CCOC(=O)N1CCc2c(sc3c2c(=O)n(-c2ccc(CC)cc2)c(=O)n3Cc2ccc(F)cc2Cl)C1 -20.5%
Cc1ccc(-n2ncc3c(NCCCn4ccnc4)ncnc32)cc1C 18.8%
CCOC(=O)c1c(NC(=O)Cc2coc3ccc(CC)cc23)sc2c1CCC2 -19.1%
Nc1nc2[nH]cc(CCc3ccc(C(=O)N[C@@H](CCC(=O)O)C(=O)O)cc3)c2c(=O)[nH]1 -9.59%
CC(C)C(=O)Nc1nnc(S(=O)(=O)N2CCc3ccccc32)s1 -19.4%
Cc1cccc(N2CCN(c3ccc4cc(S(=O)(=O)N5CCC(C)CC5)ccc4n3)CC2)c1C 2.34%
COc1ccccc1NC(=O)N1CCN(c2ccc3nnc(-c4ccc(F)cc4)n3n2)CC1 -23.9%
CCOc1ccc(NC(=O)Cn2nc(Cc3cccnc3)c3ccccc3c2=O)cc1 -7.27%
Cc1nc2c3ccccc3nc(NNC(=O)CCC(=O)N3CCN(c4ccc(F)cc4)CC3)n2n1 -15.9%
O=C(Nc1ccc(OC(F)(F)F)cc1)c1cc(-c2ccc(Cl)cc2)on1 0.953%
Cc1cccc(NC(=O)CSc2cn(CC(=O)N3CCOCC3)c3ccccc23)c1C -0.692%
CCSc1nc(-c2ccc(OC)cc2)nc2c1Cc1c(CO)cnc(C)c1O2 -11.1%
Cc1ccc2nc(COc3ccccc3NC(=O)Nc3ccc(F)c(Cl)c3)cc(=O)n2c1 7.13%
CC(=O)N1CCCc2ccc(NC(=O)c3ccc(OC(C)C)cc3)cc21 -40.6%
Cc1ccc(-n2c3nc(=O)n(C)c(=O)c-3cc3ccccc32)c(C)c1 -15.6%
CCC(=O)N1CCc2cc(Br)cc(S(=O)(=O)N3CCCC(C(=O)NCc4ccc(C)cc4)C3)c21 (configuration not stated) -22.7%
COc1cccc2cc(-c3nc4sc5c(c4c(=O)[nH]3)CCC(C(C)(C)C)C5)c(=O)oc12 (configuration not stated) -10.8%
COc1ccc(S(=O)(=O)c2c(Nc3cccc(Cl)c3)sc(C(=O)c3ccccc3)c2N)cc1 -24.2%
COc1ccc(/C=C/c2nc(C#N)c(N3CCCCC3)o2)cc1OC -12.3%
CCc1ccc(NC(=O)Cn2ncn3c(cc4ccccc43)c2=O)cc1 -4.44%
Cc1ccc2c(=O)cc(C(=O)Nc3c(C)cccc3C)oc2c1 4.17% [at 11.5 µM, percent change from vehicle, -100% = no light]
Cc1cc2c(cc1S(=O)(=O)NCc1ccc(F)cc1)OCCN2C -4.21%
CCCCN(Cc1cc2cc(C)ccc2[nH]c1=O)C(=O)c1cccc(Cl)c1 -27.3%
Cc1ccc(C(=O)c2oc3ccccc3c2NC(=O)COc2ccc(Cl)c(C)c2)cc1 4.21%
COc1cccc(NC(=O)Cn2c(=O)oc3cc(S(=O)(=O)N4CCCCC4)ccc32)c1 -40.4%
COc1cc(C2CC(=O)Nc3cc4c(cc32)OCO4)cc(OC)c1O (configuration not stated) -9.67%
Cc1c(C)n(Cc2ccc(Cl)cc2)c2ccc(C(=O)N3CCN(c4ccccc4F)CC3)cc12 -19.7%
Cc1cccc(-c2nn(C(=S)Nc3ccccc3)cc2-c2ccnc3ccccc23)n1 -24.8%
COc1ccc(OC)c(CCNC(=O)c2nc(-c3ccc(Cl)cc3)n3c2CCCCC3)c1 -28.4%
COCCc1ccc(OCC(O)CNC(C)C)cc1 (configuration not stated) -3.47%
CCc1cccc(CC)c1NC(=O)CN(C)S(=O)(=O)c1ccc2c(c1)n(C)c(=O)c(=O)n2C -9.78%
CSc1nn(Cc2ccc(F)cc2)c(N(C(C)=O)C(C)=O)c1S(=O)(=O)c1ccccc1 -33.9%
Cc1ccc(C(=O)CSc2nc(C)cc(C)c2C(=O)Nc2cccc(C)c2)cc1 -14.2%
COc1cccc(CNC(=O)C2CCCN(c3nnc(-n4c(C)ccc4C)s3)C2)c1OC (configuration not stated) -5.75%
O=C(NCCc1ccc(Cl)cc1)C1CCN(S(=O)(=O)c2ccc3[nH]ccc3c2)CC1 -24.1%
COc1ccc(CCNC(=O)C(=O)NCC(c2cccs2)S(=O)(=O)c2ccc(F)cc2)cc1 (configuration not stated) -37.5%
COc1ccc(-c2noc(CNC(=O)COc3cccc(C)c3C)n2)cc1 -5.55%
O=C(COCc1cc(-c2ccc3c(c2)OCO3)on1)Nc1cc(Cl)ccc1O 4.71%
CCOC(=O)c1c(C)oc2nc(C)nc(NCCCN3CCN(c4cc(C)ccc4C)CC3)c12 -1.83%
CC(C)c1ccc(Nc2c(-c3ccccn3)nc3ccccn23)cc1 -66.9%
COc1ccc(-c2nc(CSCC(=O)NCc3ccccc3Cl)c(C)o2)cc1OC -32.7%
CNC(=O)C1CCC(Cn2c(=O)c3sccc3n(CC(=O)N3CCC(C)CC3)c2=O)CC1 (configuration not stated) -10.5%
Cc1ccc(-n2ncc(C(=O)NCc3ccco3)c2C2CCN(C(=O)OC(C)(C)C)CC2)cc1 -24.2%
Cc1ccc2nc(Cl)c3cc(C(=O)N4CCCCC4)sc3c2c1 2.81%
Cn1c(=O)c2c(-c3ccc(Cl)cc3)n(CCc3ccccc3)cc2n(C)c1=O -20.6%
COC(=O)c1cc(S(=O)(=O)NCC2CCN(Cc3cccc(F)c3)CC2)cn1C -13.3%
Cc1cc(C)c(Cn2c(=O)n(CCCC(=O)NCc3ccc4c(c3)OCO4)c(=O)c3sccc32)c(C)c1 -11.4%
OCc1ccccn1 -10.3%
CN(C(=O)c1c(O)c2ccccc2n(C)c1=O)c1ccccc1 -5.82%
COc1ccc(N(C(=O)Cn2nnc3ccccc32)C(C(=O)NCc2ccccc2)c2ccc(F)cc2)cc1 (configuration not stated) -15.9%
Cn1nnc2c(NCc3c(F)cccc3F)ncnc21 3.89%
COc1ccc(N2CCN(Cc3nc4c(c(=O)[nH]c(=O)n4C)n3Cc3ccccc3F)CC2)cc1 -8.98%
COc1ccc(CCNC(=O)c2cc(=O)c3cc(C)c(C)cc3o2)cc1OC 17.2% [at 11.5 µM, percent change from vehicle, -100% = no light]
Cn1c(=O)c2c(nc(SCC(=O)Nc3ccc(F)c(F)c3)n2Cc2ccccc2F)n(C)c1=O -34.7%
CCc1ccc(C(=O)CC2(O)C(=O)N(CCc3ccccc3)c3ccc(Cl)cc32)cc1 (configuration not stated) -48.6%
Cc1ccc(S(=O)(=O)NCCc2nnc3ccc(SCC(=O)Nc4ccc(F)cc4F)nn23)cc1 -2.6%
COc1ccc(CCNC(=O)CCc2c(C)nc3cc(-c4cccc(F)c4)nn3c2C)cc1OC -50.9%
